# Out of some 330,000 compounds screened, about 560 (0.17%) were called active. Inconclusive means that the source gave no clear call. Such entries were picked first, then a sample of the others. Calls come from the whole dose curve; as a rule, active = well fitted inhibition curve with a large enough effect; inconclusive = small, poorly fitted or top-dose-only effect, or effect the other way; inactive = flat fitted curve, though single readings scatter. No potency is given beside an inconclusive call; the fits are too rough.
# Molecular target: ATP-dependent 6-phosphofructokinase (Trypanosoma brucei brucei) (UniProt O15648)
# UniProt O15648, sequence (O15648 whole entry, looked up): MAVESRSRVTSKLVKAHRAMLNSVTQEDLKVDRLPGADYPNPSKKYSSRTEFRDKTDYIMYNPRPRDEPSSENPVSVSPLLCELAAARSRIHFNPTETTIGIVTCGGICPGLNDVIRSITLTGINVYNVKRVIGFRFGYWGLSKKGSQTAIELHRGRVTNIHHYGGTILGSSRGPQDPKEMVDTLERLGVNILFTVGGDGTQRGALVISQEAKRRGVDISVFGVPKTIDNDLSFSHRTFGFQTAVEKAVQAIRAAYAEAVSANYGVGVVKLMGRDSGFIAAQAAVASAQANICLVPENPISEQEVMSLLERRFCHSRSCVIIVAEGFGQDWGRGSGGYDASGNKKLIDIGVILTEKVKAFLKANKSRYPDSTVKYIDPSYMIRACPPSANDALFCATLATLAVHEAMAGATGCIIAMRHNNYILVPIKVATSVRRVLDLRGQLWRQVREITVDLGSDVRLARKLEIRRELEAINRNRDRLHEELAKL
# Assay: qHTS Assay to Find Inhibitors of T. brucei phosphofructokinase; note: nearly all actives have a fitted effect of over 60% in size;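 for activity, negative = inhibition: 0% = uninhibited 1x PFK enzyme wells and -100% = no-enzyme wells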
# Conditions: T. brucei PFK, ADP-Glo luminescence; activity, negative = inhibition: at 57.5 µM (top of the series)
# In short: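 1.25 nM PFK with 0.5 mM F6P and 0.1 mM ATP in 0.1 M TEA pH 8.0, 5 mM MgCl2, incubated 45 min at room temperature; ADP measured by ADP-Glo luminescence; compounds titrated up to 57 uM.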
# Potency is the fitted concentration of half-maximal effect; tags give direction and shape of the fitted curve.
Structure (SMILES),Potency,"activity, negative = inhibition"
O=C(Nc1ccc(C(=O)O)cc1)Nc1ccc([N+](=O)[O-])cc1,"inconclusive [falling, single point]",–
O=C1N=C(N2CCCC2)S/C1=C\c1cn[nH]c1-c1ccccc1,"inconclusive [falling, single point]",–
COc1cccc(CNC(=O)C(c2ccc(Cl)cc2)C(C)C)c1 (stereo not given),"inconclusive [activator, single point]",–
Cc1cc(NS(=O)(=O)c2ccc(NC(=O)CCCOc3ccccc3C)cc2)nc(C)n1,–,inactive: 0.934%
O=[N+]([O-])c1ccc(C=Nc2ccc(Cl)c([N+](=O)[O-])c2)s1,active: 23.9 µM,–
CC1(C)C(=O)Nc2ccccc2N1C(=O)COC(=O)Cc1ccc(Cl)c(Cl)c1,active: 23.9 µM,–
O=C(O)CC(C(=O)O)N1C(=O)/C(=C/c2ccc(-c3nc4ccccc4s3)o2)SC1=S (stereo not given),"inconclusive [falling, single point]",–
O=S(=O)(NCCNc1nccc(C(F)(F)F)n1)c1ccccc1,–,inactive: -10.6%
Cc1ccc(-c2ccc(C3C(C#N)=C(N)Oc4n[nH]c(C)c43)o2)cc1 (stereo not given),"inconclusive [falling, partial curve]",–
Cc1nn(C(C)(C)C)c(C)c1/C=N/OC(=O)Nc1ccc(Cl)cc1,–,inactive: 0.903%
O=C(NCCc1ccc(F)cc1)Nc1ccc([N+](=O)[O-])cc1,"inconclusive [falling, partial curve]",–
COC(=O)C1(C)NC(c2ccco2)C2C(=O)N(c3ccc(F)cc3)C(=O)C21 (stereo not given),"inconclusive [falling, single point]",–
N#C/C(=C\c1c(N2CCC(C(N)=O)CC2)nc2ccccn2c1=O)C(=O)NCc1ccco1,"inconclusive [falling, single point]",–
O=C(N/N=C\c1ccc(-c2ccc([N+](=O)[O-])cc2)o1)C1COc2ccccc2O1 (stereo not given),"inconclusive [falling, single point]",–
Cc1cc(NC(=O)Nc2ccc(F)c(Cl)c2)no1,"inconclusive [falling, partial curve]",–
Cn1c(-c2ccc3c(c2)OCO3)cnc1N,–,inactive: 6.25%
Cn1cccc1C(=O)OCC(=O)NNC(=O)c1ccc([N+](=O)[O-])cc1,"inconclusive [activator, single point]",–
Cc1ccc(C)c2nc3sc(C(=O)O)cc3cc12,"inconclusive [activator, partial curve]",–
C=C(C)C(=O)Nc1cccc(C2=NOC3(C2)C[C@H](C(N)=O)N(C(=O)CC#N)C3)c1 (stereo not given in full),"inconclusive [falling, single point]",–
CCOC(=O)c1cc(NC(=O)C2C3C=CC(O3)C2C(=O)O)cc(C(=O)OCC)c1 (stereo not given),"inconclusive [activator, single point]",–
COc1ccc(C(=O)Nc2cccc(/C=C(\CCC(=O)O)c3nc4ccccc4s3)c2)cc1,–,inactive: 5.01%
O=C(CCCCCCCCC(=O)N/N=C/c1ccco1)N/N=C/c1ccco1,"inconclusive [falling, single point]",–
COc1ccc(NC(=O)c2ccc3c(c2)NC(=O)CS3)cc1S(=O)(=O)Nc1ccc(Br)cc1,"inconclusive [falling, partial curve]",–
COc1ccc(CN2C(=O)CN=C2Nc2ccc(C)cc2C)cc1,"inconclusive [falling, single point]",–

Structure (SMILES),Potency,"activity, negative = inhibition"
COc1ccc(N2CCN(C3CC(=O)NC3=O)CC2)cc1 (stereo not given),"inconclusive [falling, single point]",–
COc1cc(N=c2ssnc2Cl)cc(OC)c1OC,"inconclusive [falling, single point]",–
Oc1ccc(CNc2cccc(F)c2F)c2cccnc12,"inconclusive [falling, single point]",–
C[C@@H]1CN([C@H](C)CO)C(=O)c2cccc(NC(=O)c3ccncc3)c2O[C@@H]1CN(C)Cc1ccc(C(=O)O)cc1,–,inactive: 2.23%
COC(=O)c1sc(N2C(=O)C(O)=C(C(=O)c3ccc(C)o3)C2c2ccc(OC)c(OC)c2)nc1C (stereo not given),"inconclusive [falling, single point]",–
O=C(C1CC1)N1CCC(c2nc(-c3ccc(S(=O)(=O)NCC4CCCO4)cc3)no2)CC1 (stereo not given),"inconclusive [falling, single point]",–
CC(OC(=O)c1ccc(F)c(S(=O)(=O)N2CCOCC2)c1)C(=O)NC1CCCC1 (stereo not given),–,inactive: 0.981%
CCOc1ccc(C(c2c(C)[nH][nH]c2=O)c2c(C)[nH][nH]c2=O)cc1OC,"inconclusive [falling, partial curve]",–
CC12OC1C1(O)CCCC1=CC2=O (stereo not given),–,inactive: 0.57%
S=c1[nH]nc(Nc2cccc3ccccc23)s1,"inconclusive [falling, single point]",–
O=C(O)c1cc2ccc3ccccc3c2oc1=O,"inconclusive [activator, single point]",–
C[C@@]12C(=O)N(c3ccc(C(F)(F)F)cc3)C(=O)N1[C@@H]1c3ccccc3OC[C@@H]1[C@H]2c1ccccc1,–,inactive: -0.349%
CC(=O)NCCC(=O)Nc1cc(S(=O)(=O)N2CCOCC2)ccc1N1CCCC1,–,inactive: -3.37%
CN(C)S(=O)(=O)N1CCCC(C(=O)c2ccc(C(F)(F)F)cc2)C1 (stereo not given),–,inactive: -5.25%
Cc1ccc(NC(=O)C2CCN(C(=O)NC3CCCCC3)CC2)c(C)c1,"inconclusive [falling, single point]",–
Cc1cccnc1NC(=O)CN1C(=O)NC(C)(c2ccc3ccccc3c2)C1=O (stereo not given),"inconclusive [activator, single point]",–
Cc1ccc(C)c(Sc2ccc(S(=O)(=O)Nc3ccc(C(=O)O)cc3)cc2)c1,"inconclusive [activator, single point]",–
CCCC1=NN2C(=N)/C(=C\c3ccc(SCc4ccco4)o3)C(=O)N=C2S1,"inconclusive [falling, partial curve]",–
N#Cc1cc([N+](=O)[O-])cnc1NCC(O)CO (stereo not given),"inconclusive [falling, single point]",–
O=c1[nH]c2ccc(Cl)cc2c(O)c1Cc1ccccc1,"inconclusive [falling, single point]",–
CCOc1ccc(-n2c(O)c(/C=N/NC(=O)C3COc4ccccc4O3)c3ccccc3c2=O)cc1 (stereo not given),"inconclusive [activator, single point]",–
Cc1cnc(C(=O)NCC(=O)Nc2ccccc2Br)cn1,"inconclusive [falling, single point]",–
CN1/C(=C\C=O)C(C)(C)c2ccccc21,–,inactive: 0.226%
Cc1ccc(Nc2ncnc3ccccc23)cc1,–,inactive: 1.17%

Structure (SMILES),Potency,"activity, negative = inhibition"
COC(=O)NNC(=O)C12CC3CC(CC(C3)C1)C2,–,inactive: -18.5%
Cc1c(C2C(C#N)=C(N)OC3=C2C(=O)CCC3)cnn1C (stereo not given),"inconclusive [activator, partial curve]",–
N#CC(C#N)=Cc1cccn1-c1ccc(C(=O)O)cc1,"inconclusive [falling, single point]",–
CCS(=O)c1ccccc1C(=O)OCC(=O)N1CCC(c2ccccc2)=N1 (stereo not given),"inconclusive [falling, single point]",–
CC(=O)Nc1ccc(C(=O)Nc2cc(C)on2)cc1,"inconclusive [falling, single point]",–
O=C(NCc1ccco1)C1CCN(c2nc3ccccc3n2Cc2ccc(F)cc2)CC1,–,inactive: -1.82%
CN(C)/C=C/C(=O)c1ccc(-c2ccc(Cl)cc2Cl)o1,–,inactive: 10.4%
CC(Sc1nc(N)c2c3c(sc2n1)CSC(C)(C)C3)C(=O)Nc1ccccc1 (stereo not given),–,inactive: -1.93%
COc1ccc(S(=O)(=O)N(CC(=O)NCc2ccco2)c2ccccc2OC)cc1,"inconclusive [falling, single point]",–
O=C1C=CC(=O)N1Cc1ccccc1,–,inactive: -12.4%
O=C(Nc1cccc(-c2cn3ccccc3n2)c1)c1cc2ccccc2oc1=O,–,inactive: -6.43%
Cn1c(=O)c2c(nc(CN3CCc4ccccc4C3)n2Cc2ccccc2)n(C)c1=O,–,inactive: -7.59%
CC(C)(C)NC(=O)C(c1ccncc1)N(Cc1ccc(F)cc1)C(=O)c1ccc(-c2ccccc2)[nH]1 (stereo not given),"inconclusive [falling, single point]",–
Cc1cc(=O)c2n(Cc3ccc(Cl)cc3)nc[n+]2[nH]1,"inconclusive [falling, single point]",–
Cc1ccc(S(=O)(=O)N2CCOCC2)cc1C(=O)Nc1nc(-c2ccccn2)cs1,"inconclusive [falling, single point]",–
O=C(O)C1Nc2ccc(Br)cc2C2C=CCC12 (stereo not given),"inconclusive [falling, partial curve]",–
CN1CCc2nc3sc(C(=O)C45CC6CC(CC(C6)C4)C5)c(N)c3cc2C1,"inconclusive [activator, partial curve]",–
CC(=O)NC(c1ccccc1)c1cc(Cl)c2cccnc2c1O (stereo not given),–,inactive: -2.55%
NC(N)=NS(=O)(=O)c1ccc(NC(=S)NC(=O)Cc2ccc(Cl)cc2)cc1,"inconclusive [falling, partial curve]",–
COc1ccc2nc3cccc(OC)c3nc2c1,"inconclusive [falling, single point]",–
COc1ccc(NC2=Nc3ccccc3N3C2=Nc2c(c(C)nn2-c2ccc(C)cc2)C3c2cccnc2)cc1 (stereo not given),–,inactive: -0.293%
O=C(CCC(=O)N1CCN(c2cccc(Cl)c2)CC1)c1cccs1,"inconclusive [falling, partial curve]",–

# — PubChem BioAssay AID485367 (National Center for Advancing Translational Sciences (NCATS), 2010)
